Consider 195 variants from a collection of fitness landscapes (doi:10.1126/science.1257360).

B1: PhoQ; a variant is named by its letters at X, in order, P23837 (parent)
chain: MKKLLRLFFPLSLRVRFLLATAAVVLVLSLAYGMVALIGYSVSFDKTTFRLLRGESNLFYTLAKWENNKLHVELPENIDKQSPTMTLIYDENGQLLWAQRDVPWLMKMIQPDWLKSNGFHEIEADVNDTSLLLSGDHSIQQQLQEVREDDDDAEMTHSVAVNVYPATSRMPKLTIVVVDTIPVELKSSYMVWSWFIYVLSANLLLVIPLLWVAAWWSLRPIEALAKEVRELEEHNRELLNPATTRELTSLVRNLNRLLKSERERYDKYRTTLTDLTHSLKTPLXXLQXXLRSLRSEKMSVSDAEPVMLEQISRISQQIGYYLHRASMRGGTLLSRELHPVAPLLDNLTSALNKVYQRKGVNISLDISPEISFVGEQNDFVEVMGNVLDNACKYCLEFVEISARQTDEHLYIVVEDDGPGIPLSKREVIFDRGQRVDTLRPGQGVGLAVAREITEQYEGKIVAGESMLGGARMEVIFGRQHSAPKDE

This is one part of the list.

The variants in this experiment derive from B1. Briefly: enrichment ratio after two sorts for PhoP signalling (ratio (wild type AVST 3.29)); higher = more functional. The following applies: with PhoP (E. coli).
As to LFLY, the enrichment ratio was at most 0.25.
Under SWGN stands at most 0.25; under MACT, at most 0.25.
With PPMG the figure was at most 0.25.
Under FTSE stands at most 0.25; under VKGR, at most 0.25.
Consider IFLF, for which the enrichment ratio is at most 0.25.
In the case of YIVD, the enrichment ratio is at most 0.25.
Under PAGI stands at most 0.25.
With FKAA the figure was at most 0.25.
As for PFQY, the enrichment ratio was at most 0.25.
For MPME, the enrichment ratio is at most 0.25.
Regarding QNQY, the enrichment ratio was at most 0.25.
Under DINI stands at most 0.25.
Under IHAM stands at most 0.25.
With AANI the figure was at most 0.25; with IVII, at most 0.25.
NPEK: the enrichment ratio was at most 0.25.
With FAKY the figure was at most 0.25; with PQCE, at most 0.25; with PAFQ, at most 0.25.
AGGK: the enrichment ratio was at most 0.25.
Regarding VKML, the enrichment ratio is at most 0.25.
With MMFV the figure was at most 0.25.
Under RMPK stands at most 0.25.
With WPDN the figure was at most 0.25; with SSDA, at most 0.25.
YWIM: the enrichment ratio is at most 0.25.
With TGFM the figure was 6.75.
Under SHME stands at most 0.25; under ICCR, at most 0.25; under LIES, at most 0.25.
With DSRG the figure was at most 0.25; with SEWH, at most 0.25.
For AQVY, the enrichment ratio was 2.
Under AGNV stands at most 0.25; under SFHW, at most 0.25; under QEHT, 9.94.
Under QPAT stands at most 0.25.
On to PWKT, for which the enrichment ratio stood at 0.549.
Regarding GKVH, the enrichment ratio is at most 0.25.
On to MLEL, for which the enrichment ratio was at most 0.25.
With NPAG the figure was at most 0.25; with DVGP, at most 0.25; with LAFP, at most 0.25.
With HADH the figure was at most 0.25; with TAWE, 24.5; with NIVT, at most 0.25.
As for FQET, the enrichment ratio is at most 0.25.
For HNRT, the enrichment ratio was at most 0.25.
As to VRPN, the enrichment ratio is at most 0.25.
With NKNL the figure was at most 0.25; with WKSD, at most 0.25.
Under DFQE stands at most 0.25; under RTMR, at most 0.25.
Under ERGF stands at most 0.25.
Regarding LYQV, the enrichment ratio was at most 0.25.
With LWHT the figure was at most 0.25; with IDNQ, at most 0.25; with QHSH, at most 0.25.
With TSVY the figure was 1.5.
With HQLT the figure was at most 0.25; with SQRM, at most 0.25.
In the case of REHY, the enrichment ratio is at most 0.25.
As to EQPK, the enrichment ratio is at most 0.25.
For the variant DGAH, the enrichment ratio was at most 0.25.
With GQFK the figure was at most 0.25; with GMCR, at most 0.25; with PCAA, at most 0.25.
With TYNM the figure was 4.53.
Under AKEE stands at most 0.25.
With IGQH, the enrichment ratio was at most 0.25.
Consider KFLN, for which the enrichment ratio is at most 0.25.
Under YWGH stands at most 0.25; under AASG, 8; under PEYQ, at most 0.25.
On to GEQT, for which the enrichment ratio was at most 0.25.
Take LGYT: the enrichment ratio was at most 0.25.
Under SWLI stands at most 0.25.
Take HHTF: the enrichment ratio was at most 0.25.
With EFYN, the enrichment ratio was at most 0.25.
Under YWTQ stands at most 0.25; under DDDD, at most 0.25.
On to SPYQ, for which the enrichment ratio was at most 0.25.
Take TARD: the enrichment ratio stood at 0.665.
Under LSKP stands at most 0.25; under ISYW, at most 0.25; under PKTG, at most 0.25.
Under PKFP stands at most 0.25.
With VCMT, the enrichment ratio is at most 0.25.
Regarding DECL, the enrichment ratio is at most 0.25.
With WYHP the figure was at most 0.25; with ICGC, at most 0.25; with VPMN, at most 0.25.
Under GYCN stands at most 0.25.
With ELYL the figure was at most 0.25; with PMLD, at most 0.25; with WGRR, at most 0.25.
Consider YMLD, for which the enrichment ratio was at most 0.25.
With NWCT the figure was at most 0.25; with NDID, at most 0.25; with HCVK, at most 0.25.
With SDIL the figure was 8.57.
In the case of APNP, the enrichment ratio was at most 0.25.
With FPLT the figure was at most 0.25.
Under DAER stands at most 0.25; under WWYY, at most 0.25; under NYQL, at most 0.25.
In the case of FVED, the enrichment ratio is at most 0.25.
For the variant ITRW, the enrichment ratio is at most 0.25.
Under PNWR stands at most 0.25; under HIYM, at most 0.25; under STIE, at most 0.25.
With NACH the figure was at most 0.25; with PWLN, at most 0.25.
With PLYG the figure was at most 0.25; with HIYS, at most 0.25; with ITGN, at most 0.25.
Turning to RVIP, the enrichment ratio is at most 0.25.
Under TQMG stands 32.5; under YHGQ, at most 0.25; under IDLS, at most 0.25.
With TLGK the figure was at most 0.25; with SGEG, at most 0.25; with INNW, at most 0.25.
With MSPS the figure was at most 0.25.
Take NCFM: the enrichment ratio is at most 0.25.
Turning to PICG, the enrichment ratio is at most 0.25.
With ENRK the figure was at most 0.25.
Turning to WIIG, the enrichment ratio is at most 0.25.
Regarding GEAI, the enrichment ratio was 9.37.
Under STCM stands 13.3; under SWIN, at most 0.25.
On to LGHL, for which the enrichment ratio was determined as 2.13.
FTLI: the enrichment ratio was 10.3.
Regarding QECK, the enrichment ratio was 1.71.
With RVKM the figure was at most 0.25.
Under SIYD stands at most 0.25; under PRMM, at most 0.25; under WIAF, at most 0.25.
With EYCE the figure was at most 0.25.
THNM: the enrichment ratio is 8.26.
With PEDI the figure was at most 0.25.
Under DVYD stands at most 0.25; under YYVV, at most 0.25.
On to MVLW, for which the enrichment ratio is at most 0.25.
Under YSGT stands at most 0.25; under QVPR, at most 0.25.
Under TRYQ stands at most 0.25; under SRFA, at most 0.25.
With WCCW, the enrichment ratio is at most 0.25.
With ARRD the figure was at most 0.25; with PIIN, at most 0.25; with TAVS, at most 0.25.
Under FIMQ stands at most 0.25; under AWFQ, at most 0.25; under FEFP, at most 0.25.
With NVTV the figure was at most 0.25; with TYMW, at most 0.25; with QRCI, at most 0.25.
With NCPM, the enrichment ratio was at most 0.25.
Turning to YHTY, the enrichment ratio was at most 0.25.
With KMIC the figure was at most 0.25.
As to SPKT, the enrichment ratio was at most 0.25.
Under QNGT stands at most 0.25; under YNIS, at most 0.25.
With VRHV the figure was at most 0.25; with WCCF, at most 0.25; with WNVM, at most 0.25.
Under GTCF stands 1.25.
LLEH: the enrichment ratio is at most 0.25.
For the variant ISWP, the enrichment ratio is at most 0.25.
With KNCY the figure was at most 0.25; with AYYK, at most 0.25.
With VQFK the figure was at most 0.25.
With KQFV the figure was at most 0.25; with SLMH, 0.659; with FLQP, at most 0.25.
Consider RPQP, for which the enrichment ratio was at most 0.25.
Regarding MLYY, the enrichment ratio was at most 0.25.
Under LNPC stands at most 0.25; under RVIS, at most 0.25; under VTQC, at most 0.25.
Consider VPIT, for which the enrichment ratio was at most 0.25.
Under WLEF stands at most 0.25.
Under GYEE stands at most 0.25.
With VLWH, the enrichment ratio is at most 0.25.
With AAPP the figure was at most 0.25; with RDMS, at most 0.25.
Turning to DIWN, the enrichment ratio was at most 0.25.
As to TVHF, the enrichment ratio was at most 0.25.
Under FIMM stands 10.3; under DAEW, at most 0.25; under ERTN, at most 0.25.
Under IHWC stands at most 0.25.
